# Experimental data published in article PMC5892938.
# The list shows a part of the results. At the low end of the ranking the order means little.
# Molecular target: GST-SBP-SLBP (stem-loop binding protein) (UniProt Q14493)
# Test: targeted RNA Bind-n-Seq;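 further: DESeq read counts versus GST-SBP nonspecific binding control pulldown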
# Conditions: RBNS binding buffer: 25 mM Tris pH 7.5, 150 mM KCl, 3 mM MgCl2, 0.1% Tween, 0.5 mg/mL BSA, 1 mM DTT; 27 nM protein, 750 pM RNA pool; temperature not stated; high values mean tight binding
row,Sequence,binding signal (log2 fold change)
1,GGUCACGUCUCAAUCAACUCAAUUCCAGGAGUUUUCUCCUGCUUACUCAACAGCUCGCAGUCAAG,0.13
2,GGUCACGUCUCAAUCAACUCAUCCUCAGGAGUUUACUCCUGCAUUCUCAACAGCUCGCAGUCAAG,0.0577
3,GGUCACGUCUCAAUCAACUCAUCCCCAGGAGUUUUCUCCUGCAUAGUCAACAGCUCGCAGUCAAG,0.142
4,GGUCACGUCUCAAUCAACUCUAACGAGGGGGGGAAAACCCCUUUACCCUCAUUCUCAACAGCUCGCAGUCAAG,-0.527
5,GGUCACGUCUCAAUCAACUCUUUCCCAGGAGUUUCCUCCUGUAAUUUCAACAGCUCGCAGUCAAG,0.0116
6,GGUCACGUCUCAAUCAACUCAUUCUCAGGAGUUUUCUCCUGCUUUUUCAACAGCUCGCAGUCAAG,0.108
7,GGUCACGUCUCAAUCAACUCUCUAGAGGGGGGGAAAACCCCUUUGCCCUCAAAUUCAACAGCUCGCAGUCAAG,-0.527
8,GGUCACGUCUCAAUCAACUCCAUCGAGGGGGGGAAAACCCCUUUGCCCUCACAUUCAACAGCUCGCAGUCAAG,0.0932
9,GGUCACGUCUCAAUCAACUCUUCCUCCAGGGAAAGCCCUGGUUAUUUCAACAGCUCGCAGUCAAG,-0.326
10,GGUCACGUCUCAAUCAACUCUUCCUCCAGGGAAACCCCUGGCUAUUUCAACAGCUCGCAGUCAAG,-0.104
11,GGUCACGUCUCAAUCAACUCAAUUUCCAGGGAAAACCCUGGUAUUCUCAACAGCUCGCAGUCAAG,-0.00494
12,GGUCACGUCUCAAUCAACUCUAUUUCAGGAGUUUUCUCCUGUAUAUUCAACAGCUCGCAGUCAAG,-0.171
13,GGUCACGUCUCAAUCAACUCUUUUCCCAGGGAAAGCCCUGGUUUUUUCAACAGCUCGCAGUCAAG,-0.135
14,GGUCACGUCUCAAUCAACUCAUUCCCCAGGGAAAGCCCUGGUAUUCUCAACAGCUCGCAGUCAAG,-0.0736
15,GGUCACGUCUCAAUCAACUCUUUUUCCAGGGAAAACCCUGGCAGUCUCAACAGCUCGCAGUCAAG,0.12
16,GGUCACGUCUCAAUCAACUCAACAGAGGGGGGGAAAACCCCUUUACCCUCAUUUUCAACAGCUCGCAGUCAAG,0.422
17,GGUCACGUCUCAAUCAACUCAAGUCCCAGGGAAACCCCUGGUUAAUUCAACAGCUCGCAGUCAAG,-0.399
18,GGUCACGUCUCAAUCAACUCUUCUUCCAGGGAAAUCCCUGGCUAAUUCAACAGCUCGCAGUCAAG,0.0581
19,GGUCACGUCUCAAUCAACUCUUCUCCAGGAGUUUUCUCCUGCUAUGUCAACAGCUCGCAGUCAAG,-0.0246

row,Sequence,binding signal (log2 fold change)
1,GGUCACGUCUCAAUCAACUCUUACGAGGGGGGGAAAACCCCUUUACCCUCAUCAUCAACAGCUCGCAGUCAAG,-0.045
2,GGUCACGUCUCAAUCAACUCAUCGUCAGGAGUUUUCUCCUGCUAUUUCAACAGCUCGCAGUCAAG,0.0471
3,GGUCACGUCUCAAUCAACUCUUCUCCAGGAGUUUUCUCCUGCUAUCUCAACAGCUCGCAGUCAAG,0.0817
4,GGUCACGUCUCAAUCAACUCAAUUUCAGGAGUUUCCUCCUGCAUAGUCAACAGCUCGCAGUCAAG,0.159
5,GGUCACGUCUCAAUCAACUCAUCCUCCAGGGAAAACCCUGGUUAAUUCAACAGCUCGCAGUCAAG,0.00953
6,GGUCACGUCUCAAUCAACUCUUCUCCCAGGGAAAGCCCUGGUUUACUCAACAGCUCGCAGUCAAG,-0.187
7,GGUCACGUCUCAAUCAACUCAAUCGCAGGAGUUUUCUCCUGGUUUCUCAACAGCUCGCAGUCAAG,-0.0134
8,GGUCACGUCUCAAUCAACUCAUUCCCAGGAGUUUACUCCUGUAUUCUCAACAGCUCGCAGUCAAG,0.0766
9,GGUCACGUCUCAAUCAACUCUUCUCCCAGGGAAAGCCCUGGUAAUCUCAACAGCUCGCAGUCAAG,-0.113
10,GGUCACGUCUCAAUCAACUCAUUCCCAGGAGUUUACUCCUGCAAUUUCAACAGCUCGCAGUCAAG,0.0311
11,GGUCACGUCUCAAUCAACUCUUUCGAGGGGGGGAAAACCCCUUUACCCUCAACUUCAACAGCUCGCAGUCAAG,0.152
12,GGUCACGUCUCAAUCAACUCUAUCUCCAGGGAAAGCCCUGGUAUUCUCAACAGCUCGCAGUCAAG,0.287
13,GGUCACGUCUCAAUCAACUCAACGCCAGGAGUUUACUCCUGUAAUUUCAACAGCUCGCAGUCAAG,-0.0163
14,GGUCACGUCUCAAUCAACUCUCUCGAGGGGGGGAAAACCCCUUUACCCUCACUAUCAACAGCUCGCAGUCAAG,-0.000312
15,GGUCACGUCUCAAUCAACUCAAUCUCAGGAGUUUUCUCCUGCUUUUUCAACAGCUCGCAGUCAAG,0.0182
16,GGUCACGUCUCAAUCAACUCUACUUCCAGGGAAAUCCCUGGUAUUUUCAACAGCUCGCAGUCAAG,-0.162
17,GGUCACGUCUCAAUCAACUCUUCUCCAGGAGUUUACUCCUGUUUUUUCAACAGCUCGCAGUCAAG,-0.133
18,GGUCACGUCUCAAUCAACUCUUCCCCCAGGGAAACCCCUGGCAAUGUCAACAGCUCGCAGUCAAG,0.0304
